At least one structure is not confirmed: it was looked up by name or label, or the drawing left a doubt.
target: T1, human CB2 (hCB2) receptor (Homo sapiens, UniProt P34972); assay: Inhibition of forskolin-activated cAMP production upon activation of hCB2 (HTRF), CHO-K1 cells; assay type: cell-based; settings: Table C-1; selectivity hCB2 over hCB1
T1 construct: expressed in transfected cells; host or cells: CHO-K1
Experimental: Functional activity of the test compounds was assessed by measuring their potency to inhibit forskolin-activated cAMP production upon activation of the human CB1 (hCB1) or human CB2 (hCB2) receptor through homogenous time resolved fluorescence (HTRF) assays.
Before the experiments, medium was removed, cells were washed with PBS/EDTA (140 mM NaCl, 1 mM Naz-EDTA, 8 mM Na2HPO4.2H2O, 8.5 mM KH2PO4, 2.7 mM KCl, 21 mM glucose), resuspended in stimulation buffer (HBSS 1x, IBMX 1 mM, Hepes 5 mM, MgCl2 10 mM, BSA 0.1%, pH 7.4). Cells were diluted to a concentration of 8.10^5 cell/ml for hCB1 experiments and 10^6 cells/ml for hCB2 experiments. Assays were performed using the cAMP Dynamic HTRF kit (CIS bio international, France) according to the recommendations of the manufacturer.
Then, 20 μl of the diluted hCB2-CHO-K1 cells was added (20,000 cells/well). After 30 minutes incubation in dark at room temperature, 10 μl cAMP-XL665 and 10 μl anti-cAMP cryptate (both at a final dilution of 1/100) was added to the cells.

T1 sequence (P34972 whole entry): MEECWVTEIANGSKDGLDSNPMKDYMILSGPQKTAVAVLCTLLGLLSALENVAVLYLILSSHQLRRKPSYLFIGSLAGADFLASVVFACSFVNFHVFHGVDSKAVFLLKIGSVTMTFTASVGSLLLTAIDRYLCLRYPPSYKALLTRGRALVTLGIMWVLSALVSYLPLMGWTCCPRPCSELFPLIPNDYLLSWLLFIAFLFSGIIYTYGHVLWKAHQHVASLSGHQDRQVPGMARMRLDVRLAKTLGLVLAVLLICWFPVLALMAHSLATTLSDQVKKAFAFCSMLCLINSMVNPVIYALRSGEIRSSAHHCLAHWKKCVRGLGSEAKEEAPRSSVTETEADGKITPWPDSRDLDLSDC

SMILES | ratio CB2 agonism over CB1 agonism
CC(C)(C)c1nc2cc([S+]([O-])c3cc[n+]([O-])cc3)ccc2n1CC1CCOCC1 (stereo not shown) [Co. No. 2] | >263
CC(C)(C)c1nc2cc(S(=O)(=O)c3cc[n+]([O-])cc3)ccc2n1CC1CCOCC1 [Co. No. 3] | 398
CC(C)(C)c1nc2cc(S(=O)(=O)c3cc[n+]([O-])cc3C(F)(F)F)ccc2n1CC1CCOCC1 [Co. No. 21] | 2630
CC(C)(C)c1nc2cc([S+]([O-])c3cc[n+]([O-])cc3Br)ccc2n1CC1CCOCC1 (stereo not shown) [Co. No. 86] | >832
CC(C)(C)c1nc2cc(S(=O)(=O)c3cc[n+]([O-])cc3Br)ccc2n1CC1CCOCC1 [Co. No. 87] | 1072
Cc1cc(S(=O)(=O)c2ccc3c(c2)nc(C(C)(C)C)n3CC2CCOCC2)cc[n+]1[O-] [Co. No. 89] | >891
CC(C)(C)c1nc2cc([S+]([O-])c3cc[n+]([O-])cc3C(F)(F)F)ccc2n1CC1CCOCC1 (stereo not shown) [Co. No. 95] | >1738
CC(=O)Nc1cc(S(=O)(=O)c2ccc3c(c2)nc(C(C)(C)C)n3CC2CCOCC2)cc[n+]1[O-] [Co. No. 96] | >5012
Cc1cc(S(=O)(=O)c2ccc3c(c2)nc(CC(C)(C)C)n3CC2CCOCC2)cc[n+]1[O-] [Co. No. 102] | 1820
CC(C)(C)Cc1nc2cc(S(=O)(=O)c3cc[n+]([O-])cc3)ccc2n1CC1CCOCC1 [Co. No. 103] | 295
COc1c[n+]([O-])ccc1S(=O)(=O)c1ccc2c(c1)nc(C(C)(C)C)n2CC1CCOCC1 [Co. No. 115] | 977
Cc1[nH][n+]([O-])cc1[S+]([O-])c1ccc2c(c1)nc(C(C)(C)C)n2CC1CCOCC1 (stereo not shown) [Co. No. 137] | 687
CC(=O)N1CCC(Cn2c(C(C)(C)C)nc3cc(S(=O)(=O)c4cc[n+]([O-])cc4)ccc32)CC1 [Co. No. 143] | >589
COCCCc1cc(S(=O)(=O)c2ccc3c(c2)nc(C(C)(C)C)n3CC2CCOCC2)cc[n+]1[O-] [Co. No. 155] | >3951

same assay, conditions: Table C-3; comparison of art compounds A to E with compounds of the invention

SMILES | ratio CB2 over CB1 agonism
CC(C)(C)c1nc2cc(S(=O)(=O)c3cc[n+]([O-])cc3)ccc2n1CC1CCOCC1 [Co. No. 3] | 398
CC(C)(C)c1nc2cc(S(=O)(=O)c3cc[n+]([O-])cc3C(F)(F)F)ccc2n1CC1CCOCC1 [Co. No. 21] | 2630
